Source: PubChem BioAssay AID1963576 (National Center for Advancing Translational Sciences (NCATS), 2024)
The whole screen tested about 46,000 compounds, of which about 60 (0.1%) were called active. Another 3% or so got no clear call; they are omitted. The call rests on the fitted dose curve; in most records, active means well fitted inhibition curve with a large enough effect; inconclusive means small, poorly fitted or top-dose-only effect; inactive means no such curve, though single readings can be large or run the other way. The list shows a part of the results.

Assay: Primary qHTS assay for Inhibitors of ovarian cancer metastasis using an organotypic tumor microenvironment (TME) model. Further: nearly all actives have a fitted effect of over 65% in size.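 On activity change, negative = inhibition: plate controls were DMSO wells for no effect and tomatine positive control wells for full effect.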
Details: SKOV3ip1-GFP adhesion/invasion on 3D omental model, fluorescence; series mostly up to 45.8 µM; activity change, negative = inhibition: at the top concentration
Outline: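 A 3D layer of primary human omental fibroblasts, mesothelial cells, fibronectin and collagen I, grown 48 hr, received SKOV3ip1-GFP cells in serum-free medium plus compounds at 0.36-46 umol/L. After 2 hr RT and 16 hr 37 C, fixed adherent GFP cells were counted; normalized to DMSO and tomatine.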

outcome, inactive:
COc1ccc(NC(=O)CCn2cnc3onc(-c4ccc(F)cc4)c3c2=O)cc1OC
CCN(CCCNC(=O)Cn1ncc2c([nH]c3ccc(C)cc32)c1=O)c1ccccc1
COc1ccc(OC(=O)c2nc(SCc3ccccc3C)ncc2Cl)cc1
CC(C)c1nn2c(=O)cc(COC(=O)c3ccc(NC(=O)c4cccs4)cc3)nc2s1
Cc1ccc2nc(-c3ccccn3)c(Nc3ccccc3C)n2c1
Cc1cccc(Cn2c(=O)n(-c3ccccc3C)c(=O)c3c2c2cc(C)ccc2n3C)c1
COc1ccc(S(=O)(=O)NCCc2csc3nc(-c4ccccc4)nn23)cc1OC
Cc1cc(C)c2oc(-c3cccc(NC(=O)c4ccc(-c5cccc([N+](=O)[O-])c5)o4)c3)nc2c1
CCCC1=Nc2cc(C(=O)N3CCC(C(=O)OCC)CC3)ccc2Sc2ccccc21
Cc1ccc(-c2nc3c4c(-c5ccccc5)c(-c5ccccc5)oc4ncn3n2)cc1
COc1ccc(C(=O)Nc2nc(-c3nnn(-c4ccc(C(C)C)cc4)c3C)ns2)cc1
CCc1ccc(NC(=O)Cn2c(=O)n(CCC(=O)NCCc3ccc(Cl)cc3)c(=O)c3ccccc32)cc1
COC(=O)c1ccccc1NC(=O)CCCn1c(=O)c2cccn2c2cccnc21
CCOC(=O)C(Cc1c[nH]c2ccccc12)NC(=O)COc1ccc(CC)cc1 (configuration not stated)
O=C(NCc1ccco1)c1ccc2c(c1)N(Cc1ccc(F)cc1)C(=O)c1ccccc1S2(=O)=O
CC(=O)N1c2ccc(S(=O)(=O)Nc3ccc(Cl)cc3C)cc2CC1C (configuration not stated)
CC(C)(C)OC(=O)N1CCC(c2c(C(=O)NCCc3ccccc3)cnn2-c2ccc(F)cc2F)CC1
Cn1c(=O)oc2cc(S(=O)(=O)N3CCC(C(=O)N4CCN(c5ccccc5F)CC4)CC3)ccc21
CCOC(=O)c1c(NC(=O)COc2cccc(C)c2C)sc2c1CCC(CC)C2 (configuration not stated)

Activity change, negative = inhibition, inactive:
CC1Cn2c(C(=O)NCc3ccccc3Cl)cc3cccc(c32)S1 (configuration not stated) -18.7%
CCC(Sc1nc2n[nH]c(C)c2c(=N)n1-c1ccccc1Cl)C(=O)N(CC)CC (configuration not stated) 4.69%
N#Cc1cc2c(=O)n3ccccc3nc2n(-c2nnc(SCc3ccccc3Cl)s2)c1=O 0.796%
Cc1cccc(NC(=O)c2cc3c(=O)n(Cc4cccnc4)ccc3nc2C)c1 4.24%
Cc1ccccc1OCC(=O)Nc1ccccc1OCc1cc(=O)n2ccccc2n1 4.7%
COc1ccnc(CS(=O)c2nc3ccc(OC(F)F)cc3[nH]2)c1OC (configuration not stated) 0.847%
O=C(NCC(c1cccs1)S(=O)(=O)c1cccs1)c1c(F)cccc1F (configuration not stated) -2.07%
CCCOc1ccc(C(=O)N(Cc2ccco2)Cc2ccco2)cc1 -20.3%
COc1ccc(CCNC(=O)CCc2c(C)nc3cc(-c4cccc(F)c4)nn3c2C)cc1OC -24.9%
Cc1ccc(S(=O)(=O)NCCc2nnc3ccc(SCC(=O)Nc4ccc(F)cc4F)nn23)cc1 -8.18%
CCOC(=O)Cn1c(=O)n(CC2CCCO2)c2nc(-c3cc(OC)ccc3OC)nc(C(N)=O)c21 (configuration not stated) 9.75%
COc1ccccc1-n1c(=O)n(C)c2c(C(N)=O)nc(-c3cccc(OC)c3OC)nc21 20.1%
Cc1cc(C)c2c(CC(=O)Nc3cc(C(F)(F)F)ccc3Cl)coc2c1 -7.44%
COc1ccc(C(=O)Nc2cccc(C(=O)OCc3cc(=O)n4c5c(sc4n3)CCCC5)c2)cc1 17.8%
COc1cccc(CSc2nc3n(n2)C(CC(C)C)C(C(=O)Nc2ccccc2C)=C(C)N3)c1 (configuration not stated) 3.55%
Cc1ccc(CCNC(=O)CCCc2nnc3n(C)c(=O)c4sccc4n23)cc1 6.85%
CCN(CC)c1nn2c(=O)c(C(=O)NCCc3cccc(C)c3)cnc2s1 -0.426%
CCCN1CCc2nc(N3CCN(C)CC3)ncc2C1 -11.9%
O=C(C1CCCN(S(=O)(=O)c2cccc3nsnc23)C1)N1CCN(c2cccc(Cl)c2)CC1 (configuration not stated) 37.5%
CCN1C(=O)C(O)(c2c[nH]c3ccccc23)c2cc(Br)ccc21 (configuration not stated) 2.12%
CCc1cccc(C)c1NS(=O)(=O)c1ccc2c(c1)CC(C)N2C(=O)C1CC1 (configuration not stated) 7.81%
Cc1ccc(CNc2nc3ccccc3n3cnnc23)cc1 -9.01%
Cc1csc2nc(COC(=O)c3ccc(NC(=O)C(C)Oc4ccccc4)cc3)cc(=O)n12 (configuration not stated) -4.25%
CC(C)Cc1ccc(C(C)C(=O)O)cc1 (configuration not stated) 0.648% [at 23.2 µM]
CCC(=O)Nc1nnc(S(=O)(=O)N2c3ccccc3CC2C)s1 (configuration not stated) -3.92%
Cc1ccc2oc3c(c(=O)c2c1)C(c1ccc(O)cc1)N(c1nc(C)c(C)s1)C3=O (configuration not stated) 1.93%
COc1ccccc1C(=O)N(c1ccc(C)cc1)S(=O)(=O)c1ccc(Cl)cc1 -15.3%
CCC(=O)N1c2ccccc2CC1C(=O)NCc1cc(Br)ccc1OC (configuration not stated) 5.26%
Cc1cccc(NC(=O)C2CCCN2S(=O)(=O)c2ccc3c(c2)n(C)c(=O)c(=O)n3C)c1 (configuration not stated) 1.88%
O=C(NCc1cccc(F)c1)c1ccccc1NC(=O)c1nsc2ccccc12 0.409%
COc1ccc(NC(=O)c2cnc(N3CCCC3)nc2)cc1OC 2.87%
COc1ccc(-n2c(SCC(=O)NCc3ccc(F)cc3)nc3c([nH]c4ccccc43)c2=O)cc1 -5.85%
CC(C)N1[N]C(=C2C=c3cc(O)ccc3=N2)c2c(N)ncnc21 19.7%
O=C(c1ccccc1)N1CCc2cc(CNS(=O)(=O)c3ccc(Cl)s3)ccc21 -9.59%
O=C(CCSCc1cccc(Cl)c1)NCCc1ccc(Cl)cc1 -6.1%
Cc1nn2cc(-c3ccc(OC(C)C)cc3)nc2s1 3.31%
Cn1c(=O)n(C)c2cc(N3CCOCC3)c(NS(=O)(=O)c3cccc(C#N)c3)cc21 0.041%
CC(=O)Nc1cccc(NC(=O)Cn2cnc3c(oc4ccccc43)c2=O)c1 -16.4%
Cc1oc(-c2ccc(Cl)cc2)nc1Cn1c(=O)cc(C)c2c(C)nn(-c3ccccc3)c21 1.97%
Cc1cccc(-c2nc3c(cnn3-c3ccccc3)c(=O)n2-c2ccc(Cl)cc2)c1 2.09%
Cc1ccc(CNC(=O)CSc2nc3ccccc3nc2Cc2ccc(C)cc2)cc1 19.9%
CCOc1ccc(NC(=O)c2c(C)oc3nc(C)nc(N4CCOCC4)c23)cc1 2.25%
Cc1ccc(CCNC(=O)C2CCN(S(=O)(=O)c3ccc4c(ccn4C)c3)CC2)cc1 -2.3%
COc1ccc(S(=O)(=O)NCC(c2ccco2)S(=O)(=O)c2cccs2)cc1F (configuration not stated) 7.42%
COc1ccc(NC(=O)CSc2nc(C)cc(C)c2C(=O)Nc2ccccc2OC)cc1 5.56%
COc1ccccc1CCNC(=O)C(C)Sc1nc(-c2ccccc2)cc(C(F)(F)F)n1 (configuration not stated) 7.77%
Cc1noc(/C=C/c2ccccc2F)c1S(=O)(=O)N1CCC(C(=O)N2CCOc3ccccc32)CC1 -6.67%
COc1ccc(C)cc1NC(=O)Nc1cccc(-c2noc(C)n2)c1 11.6%
CCCOc1ccc(CNC(=O)c2[nH]c3cc(OC)ccc3c2Sc2ccccc2)cc1 0.974%
COc1ccc(Nc2ncnc3c2nc2n3CCCCC2)cc1 -5.65%
Cc1ccc(-c2cc(-c3ccccc3)c(C#N)c(SCC(O)CS(=O)(=O)Cc3ccccc3)n2)cc1 (configuration not stated) -5.75%
COc1ccc(F)cc1S(=O)(=O)Nc1cccc(-c2ccc(N3CCC(C)CC3)nn2)c1 -9.03%
CCN(C(=O)CSc1nc2ccccc2n1Cc1ccc(F)cc1Cl)c1ccccc1 6.05%
O=C1C(c2ccc(F)cc2)N(CCc2ccccc2)C(=O)CN1C1CCCCCC1 (configuration not stated) -16.2%
COc1ccc(CCNC(=O)c2c(C)oc3ncn(C)c(=O)c23)c(OC)c1 1.91%
CC(=O)Nc1ccc(N(C(=O)Cn2nnc3ccccc32)C(C(=O)NCc2ccccc2)c2ccc(C)cc2)cc1 (configuration not stated) 15.6%
CN(C)c1ccc(Nc2ncnc3sc4c(c23)CCCC4)cc1 13.1%
COc1ccc(CC(=O)NCc2nc3cccnc3n2Cc2ccccc2)cc1 10.2%
Cc1ccc(Cl)cc1NC(=O)CN1C(=O)CCc2ccccc21 1.19%
CCCCNc1oc(-c2ccc(COc3ccc(OC)cc3)o2)nc1C#N -3.22%
COc1ccc(C)cc1N(C)C(=O)CCc1nc(-c2ccccc2F)no1 -15.3%
CCOC(=O)c1c(C)[nH]c(C)c1S(=O)(=O)N1CCC(C(=O)NCc2ccccc2Cl)CC1 7.38%
Cc1cc(NC(=O)CN2CCC(C)CC2)nc2c1c(=O)oc1ccccc12 10%
O=c1c2cn[nH]c2nc(SCc2c(F)cccc2F)n1-c1ccc(Cl)cc1 9.43%
CCCCN(CC)CCCNC(=O)Cn1ncc2c([nH]c3ccc(C)cc32)c1=O -7.08%
COc1cccc(N2CCN(S(=O)(=O)c3cc(-c4cc(C)no4)ccc3C)CC2)c1 18.1%
CC(C)COc1ccc(C(=O)Nc2cc(-c3ccccc3)no2)cc1 -5.76%
O=C(Cn1cnc2ccccc2c1=O)NCCC(=O)Nc1ccc(F)cc1 13%
COc1ccc(N(CC(=O)N2CCN(c3ccc(F)cc3)CC2)S(=O)(=O)c2c(C)noc2C)cc1 6.98%
CCOc1cccc(C(=O)Nc2nc3c(s2)CC(C(C)(C)C)CC3)c1 (configuration not stated) -6.48%
COc1cc(OC)cc(-c2nc3n(n2)C(c2ccccc2)C(C(N)=O)=C(C)N3)c1 (configuration not stated) -11.9%
Cc1ccc(/C=C/C(=O)Nc2ccccc2C(N)=O)o1 0.693%
COc1cccc(CNC(=O)c2cc(Sc3cccc(Cl)c3)nc3ccccc23)c1 19.6%
O=C(NCc1cccc(F)c1)c1ccc(NC(=O)c2nsc3ccccc23)cc1 -0.532%
COc1ccc(-c2c(C)c3ccc(O)c(CN4CCN(CCO)CC4)c3oc2=O)cc1OC 0.82%
Cc1ccc(CCNC(=O)c2c(C)oc3ncn(CC(C)C)c(=O)c23)cc1 -10.8%
COc1cc(Cl)c(C)cc1NC(=O)CC(c1ccc(F)cc1)N1Cc2ccccc2C1=O (configuration not stated) 5.58%
CCCCS(=O)(=O)c1oc(-c2ccc(F)cc2)nc1S(=O)(=O)c1ccc(C)cc1 -8.49%
